By IC50 is meant the dose at which the fit gives 50% viability; a fit beyond the top or the lowest dose is shown as a bound at that dose. The AUC spans the tested range (256-fold, ending at the top dose) of the same fit: 1 means no effect, lower means more sensitive. For part of these data: The top dose, if marked as inferred, was calculated from the reported fits.
Key:
Assay in all cases: Viability of human cancer cell lines after 72 h of drug (GDSC screen)
IPA-3 = compound: Oc1ccc2ccccc2c1SSc1c(O)ccc2ccccc12 [IPA-3]; conditions: top dose 32 µM; top dose inferred
Method: (§1)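 Human cancer cell lines in 384-well plates, medium with 10% serum, drug for 72 h over a 256-fold dose range (nine 2-fold or five 4-fold steps up to the top dose). Adherent lines were fixed and stained with the nucleic acid dye Syto60, suspension lines read with resazurin; signal relative to control wells, capped at 0 and 100%. One two-parameter sigmoid per drug and line, fitted in a mixed model over all curves with the slope shared within a line.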

CI-1040 = compound: O=C(NOCC1CC1)c1ccc(F)c(F)c1Nc1ccc(I)cc1Cl [CI-1040]; conditions: top dose 10 µM; top dose inferred
Method: as §1

Temozolomide = compound: Cn1nnc2c(C(N)=O)ncn2c1=O [Temozolomide]; conditions: top dose 30 µM
Method: as §1

XL-880 = compound: COc1cc2c(Oc3ccc(NC(=O)C4(C(=O)Nc5ccc(F)cc5)CC4)cc3F)ccnc2cc1OCCCN1CCOCC1 [XL-880]; conditions: top dose 5.12 µM; top dose inferred
Method: as §1

Tubastatin A = compound: CN1CCc2c(c3ccccc3n2Cc2ccc(C(=O)NO)cc2)C1 [Tubastatin A]; conditions: top dose 20 µM
Method: as §1

ZG-10 = compound: CN(C)C/C=C/C(=O)Nc1ccc(C(=O)Nc2cccc(Nc3nccc(-c4cccnc4)n3)c2)cc1 [ZG-10]; conditions: top dose 10 µM; top dose inferred
Method: as §1

Cell Line	AUC (IPA-3)	IC50 (IPA-3) [µM]	AUC (CI-1040)	IC50 (CI-1040) [µM]	AUC (Temozolomide)	IC50 (Temozolomide) [µM]	AUC (XL-880)	IC50 (XL-880) [µM]	AUC (Tubastatin A)	IC50 (Tubastatin A) [µM]	AUC (ZG-10)	IC50 (ZG-10) [µM]
U-2-OS (osteosarcoma, adherent)	0.982	> 32	0.761	3.84	0.982	> 30	0.983	> 5.12	0.982	> 20	0.766	4.02
RKN (ovary, adherent)	0.934	> 32	0.572	0.998	0.984	> 30	0.779	2.21	0.981	> 20	0.758	3.67
OVISE (ovary, adherent)	0.964	> 32	0.734	3.7	0.967	> 30	0.682	1.23	0.71	6.01	0.856	> 10
OE21 (oesophagus, adherent)	0.817	27.1	0.833	> 10	0.943	> 30	0.676	1.2	0.959	> 20	0.561	0.977
K2 (melanoma, adherent)	0.981	> 32	0.546	0.863	0.97	> 30	0.766	2.45	0.977	> 20	0.589	1.18
HCC-15 (lung squamous cell carcinoma, adherent)	0.979	> 32	0.448	0.434	0.97	> 30	0.767	2.45	0.97	> 20	0.804	6.77
ESS-1 (endometrium, adherent)	0.781	11.8	0.912	> 10	0.989	> 30	0.988	> 5.12	0.876	16.3	0.675	1.81
HGC-27 (stomach, adherent)	0.656	5.04	0.963	> 10	0.98	> 30	0.498	0.316	0.98	> 20	0.565	0.913
CS1 (bone, adherent)	0.984	> 32	0.902	> 10	0.944	> 30	0.517	0.358	0.963	> 20	0.731	3.1
H3118 (head and neck, adherent)	0.942	> 32	0.425	0.382	0.972	> 30	0.521	0.368	0.905	> 20	0.635	1.53
SW1573 (lung adenocarcinoma, adherent)	0.98	> 32	0.873	> 10	0.975	> 30	0.838	> 5.12	0.98	> 20	0.715	3.18
VMRC-MELG (melanoma, adherent)	0.967	> 32	0.954	> 10	0.988	> 30	0.538	0.408	0.98	> 20	0.94	> 10
NCI-H1781 (lung adenocarcinoma, adherent)	0.966	> 32	0.956	> 10	0.986	> 30	0.866	4.59	0.986	> 20	0.738	2.98
ASH-3 (thyroid, adherent)	0.671	5.98	0.693	2.17	0.976	> 30	0.985	> 5.12	0.987	> 20	0.791	4.48
DOK (head and neck, adherent)	0.953	> 32	0.44	0.395	0.97	> 30	0.803	4.25	0.974	> 20	0.753	4.97
SCC-4 (head and neck, adherent)	0.975	> 32	0.859	> 10	0.981	> 30	0.901	> 5.12	0.924	> 20	0.833	8.17
TOV-21G (ovary, adherent)	0.802	17.4	0.806	5.62	0.983	> 30	0.768	2.08	0.985	> 20	0.673	1.98
MDA-MB-468 (breast, adherent)	0.987	> 32	0.795	4.43	0.984	> 30	0.764	1.79	0.98	> 20	0.674	1.87
KMH-2 (thyroid, adherent)	0.81	14.6	0.498	0.618	0.959	> 30	0.97	> 5.12	0.99	> 20	0.806	4.42
HSC-4 (head and neck, adherent)	0.862	> 32	0.381	0.264	0.947	> 30	0.766	2.51	0.978	> 20	0.543	0.853
CAL-12T (non-small cell lung carcinoma, adherent)	0.656	5.73	0.823	6.83	0.975	> 30	0.627	0.751	0.951	> 20	0.95	> 10
CCK-81 (large intestine, adherent)	0.929	> 32	0.921	> 10	0.989	> 30	0.763	1.74	0.972	> 20	0.843	6.45

Cell Line	AUC (IPA-3)	IC50 (IPA-3) [µM]	AUC (CI-1040)	IC50 (CI-1040) [µM]	AUC (Temozolomide)	IC50 (Temozolomide) [µM]	AUC (XL-880)	IC50 (XL-880) [µM]	AUC (Tubastatin A)	IC50 (Tubastatin A) [µM]	AUC (ZG-10)	IC50 (ZG-10) [µM]
HCC-56 (large intestine, adherent)	0.964	> 32	0.674	1.94	0.986	> 30	0.71	1.28	0.965	> 20	0.917	> 10
H2461 (mesothelioma, adherent)	0.929	> 32	0.953	> 10	0.98	> 30	0.829	4.34	0.982	> 20	0.847	> 10
KYSE-50 (oesophagus, adherent)	0.748	9.54	0.954	> 10	0.989	> 30	0.543	0.415	0.99	> 20	0.869	7.9
huH-1 (liver, adherent)	0.984	> 32	0.889	> 10	0.982	> 30	0.984	> 5.12	0.983	> 20	0.967	> 10
SW1710 (bladder, adherent)	0.561	2.96	0.822	6.09	0.978	> 30	0.61	0.65	0.972	> 20	0.655	1.7
SW1271 (small cell lung carcinoma, adherent)	0.738	10.8	0.71	2.7	0.982	> 30	0.603	0.641	0.978	> 20	0.838	8.28
PC-14 (lung adenocarcinoma, adherent)	0.872	25	0.911	> 10	0.988	> 30	0.546	0.421	0.928	> 20	0.812	4.66
PANC-02-03 (pancreas, adherent)	0.922	> 32	0.479	0.543	0.958	> 30	0.515	0.354	0.976	> 20	0.787	5.33
KYSE-220 (oesophagus, adherent)	0.981	> 32	0.82	6.13	0.926	> 30	0.678	1.04	0.984	> 20	0.714	2.62
WM-115 (melanoma, adherent)	0.982	> 32	0.48	0.545	0.98	> 30	0.645	0.884	0.983	> 20	0.863	> 10
NCI-H1993 (lung adenocarcinoma, adherent)	0.945	> 32	0.983	> 10	0.981	> 30	0.757	2.29	0.964	> 20	0.792	6.22
LoVo (large intestine, adherent)	0.795	15.1	0.638	1.52	0.986	> 30	0.954	> 5.12	0.986	> 20	0.871	9.62
MDA-MB-175-VII (breast, adherent)	0.987	> 32	0.882	> 10	0.986	> 30	0.986	> 5.12	0.983	> 20	0.965	> 10
EPLC-272H (lung squamous cell carcinoma, adherent)	0.859	> 32	0.781	4.7	0.975	> 30	0.5	0.319	0.852	18.6	0.604	1.25
CHSA0011 (chondrosarcoma, adherent)	0.973	> 32	0.877	> 10	0.977	> 30	0.702	1.51	0.934	> 20	0.595	1.27
SNU-387 (liver, adherent)	0.895	> 32	0.703	2.54	0.978	> 30	0.477	0.275	0.983	> 20	0.715	2.79
TMK-1 (stomach, adherent)	0.954	> 32	0.652	1.7	0.949	> 30	0.803	2.71	0.978	> 20	0.77	4.02
SJRH30 (rhabdomyosarcoma, adherent)	0.815	18.3	0.985	> 10	0.981	> 30	0.838	3.63	0.982	> 20	0.614	1.3
HCC1937 (breast, adherent)	0.821	22.3	0.869	> 10	0.983	> 30	0.842	4.43	0.978	> 20	0.848	9.25
RVH-421 (melanoma, adherent)	0.955	> 32	0.547	0.882	0.949	> 30	0.63	0.832	0.922	> 20	0.777	5.64
MFE-296 (endometrium, adherent)	0.807	18	0.932	> 10	0.984	> 30	0.786	2.4	0.973	> 20	0.617	1.35
MHH-ES-1 (Ewing sarcoma, adherent)	0.981	> 32	0.915	> 10	0.966	> 30	0.56	0.466	0.86	16.4	0.5	0.627

From the supplement of paper PMC4967469
